Data on 38 compounds can be found in PubChem BioAssay AID1745853 (National Center for Advancing Translational Sciences (NCATS), 2022).

What all share (assay): Primary Screen for Target Class Profiling of Small Molecule Inhibitors of Methyltransferases
Assay [1] concerns the target Glycine N-methyltransferase (Homo sapiens) (UniProt Q14749). The following applies: purified enzyme, MTase-Glo SAH luminescence; measured here: GNMT inhibition; at 40 µM; stronger effect = lower value. The method in brief:
(§1)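 Each enzyme was reacted with SAM and its substrate, with compounds tested once at 40 uM; SAH formed was read by MTase-Glo luminescence.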

For assay [2], the target named is Guanidinoacetate N-methyltransferase (Homo sapiens) (UniProt Q14353). The following applies: purified enzyme, MTase-Glo SAH luminescence; measured here: GAMT inhibition; at 40 µM; stronger effect = lower value. The method in brief:
as §1

The target in assay [3] is Histamine N-methyltransferase (Homo sapiens) (UniProt P50135). The following applies: purified enzyme, MTase-Glo SAH luminescence; measured here: HNMT inhibition; at 40 µM; stronger effect = lower value. The method in brief:
as §1

Assay [4] has as its target Nicotinamide N-methyltransferase (Homo sapiens) (UniProt P40261). The following applies: purified enzyme, MTase-Glo SAH luminescence; measured here: NNMT inhibition; at 40 µM; stronger effect = lower value. Put shortly:
as §1

The target of assay [5] is Phenylethanolamine N-methyltransferase (Homo sapiens) (UniProt P11086). The following applies: purified enzyme, MTase-Glo SAH luminescence; measured here: PNMT inhibition; at 40 µM; stronger effect = lower value. Put shortly:
as §1

The other results are listed elsewhere or left out. These are further read-outs of the screen, such as a control signal, another cell line or another target. No call is given for them.
% is set by controls: 0 for no effect and ±100 for the full control effect.

Take `CC(C)CCn1c(=O)c2ccc(C(=O)NC(C)C)cc2n2c(=O)n(CC(=O)c3ccc(F)cc3F)nc12`: the activity change, negative = inhibition is -0.519% in assay [1]; -1.15% in assay [2]; -2.88% in assay [3]; -6.01% in assay [4]; -4.25% in assay [5].

`CO/N=C(\C(=O)N[C@@H]1C(=O)N2C(C(=O)O)=C(COC(C)=O)CS[C@H]12)c1csc(N)n1`: the activity change, negative = inhibition in assay [1] was -18.9%; in assay [2], 15.4%; in assay [3], 3.5%; in assay [4], 1.77%; in assay [5], 10.8%.

For the compound `O=C(CCn1ccn2nc3c(c2c1=O)CCCC3)Nc1ccc(F)cc1F`, the activity change, negative = inhibition was -3.91% in assay [1]; 2.92% in assay [2]; 1.64% in assay [3]; -13.5% in assay [4]; -4.5% in assay [5].

As for `COCCN[C@H]1[C@@H]2OC[C@@H](O2)[C@@H](NC(=O)Nc2ccc(OC)cc2)[C@@H]1O`, the activity change, negative = inhibition in assay [1] was -1.01%; in assay [2], -3.71%; in assay [3] it was 0.699%; in assay [4], -9.2%; in assay [5], -2.78%.

Turning to `CC(C)Cn1c(=O)c2ccccc2n2c(SCc3ccccc3)nnc12`, the activity change, negative = inhibition in assay [1] was -10.4%; in assay [2] it was 0%; in assay [3], 1.63%; in assay [4], -11.5%; in assay [5], 3.07%.

With `COc1ccc(CNC(=O)c2cc3n(n2)CC(C)(C(=O)NC2CCCCCC2)N(C)C3=O)cc1` (stereo not given), the activity change, negative = inhibition in assay [1] was -7.47%; in assay [2], 5.12%; in assay [3] it was -7.96%; in assay [4], 4.29%; in assay [5], -3.58%.

As to `CCN1CCC(CC(=O)N2CCC(C3CCN(C(=O)NC)CC3)C2)CC1` (stereo not given), the activity change, negative = inhibition in assay [1] was 0.621%; in assay [2] it was 0.169%; in assay [3] it was -2.06%; in assay [4], 0.968%; in assay [5], 3.26%.

In the case of `O=[N+]([O-])c1ccc(-[n+]2nc(-c3ccccc3)nn2-c2ccc(I)cc2)cc1`, the activity change, negative = inhibition in assay [1] is -44.1%; in assay [2], -43.2%; in assay [3] it was -36%; in assay [4], -53.6%; in assay [5], -46.8%.

`COc1ccc(CNC(=O)C2(C)Cn3cnc(C(=O)NCc4cccc(Cl)c4)c3C(=O)N2C2CC2)cc1` (stereo not given): the activity change, negative = inhibition in assay [1] was -7.2%; in assay [2], 4.63%; in assay [3] it was -3.67%; in assay [4] it was -6.45%; in assay [5], -0.359%.

For the compound `O=C(CCC1CCN(Cc2ccccc2)CC1)c1ccc2c(c1)NCCCC2`, the activity change, negative = inhibition in assay [1] was 1.76%; in assay [2], 12.3%; in assay [3], -32.5%; in assay [4], -7.99%; in assay [5], 3.32%.

`CC(C)CCn1c(=O)c2ccccc2n2c(CCC(=O)NCCCOC(C)C)nnc12`: the activity change, negative = inhibition is -4.31% in assay [1]; 3.51% in assay [2]; 7.78% in assay [3]; 2.28% in assay [4]; 3.41% in assay [5].

On to `COc1ccc(Cn2c(=O)c3ccccc3n3c(-c4ccc(Br)cc4)nnc23)cc1`, for which the activity change, negative = inhibition was -2.4% in assay [1]; 3.94% in assay [2]; -1.83% in assay [3]; 1.95% in assay [4]; -2.15% in assay [5].

`CNc1ccc(C)cc1C(=O)N1CCN(C)C2(CCN(C)CC2)C1`: the activity change, negative = inhibition in assay [1] is -8.35%; in assay [2], -10.2%; in assay [3] it was -6.1%; in assay [4], -17.6%; in assay [5], -10.1%.

`CC(=O)Nc1c2n(c3ccc(F)cc13)CC(C)(C(=O)NC1CCCC1)N(Cc1ccccc1)C2=O` (stereo not given): the activity change, negative = inhibition in assay [1] stood at 4.53%; in assay [2] it was 0%; in assay [3], 8.73%; in assay [4], 11.5%; in assay [5], 3.62%.

For the compound `CN(C)C(=O)c1n[nH]c2c1CN(C(=O)c1ccccc1Br)CC2`, the activity change, negative = inhibition in assay [1] is -0.115%; in assay [2], 0.283%; in assay [3], -1.42%; in assay [4] it was -1.29%; in assay [5], 6.17%.

Regarding `CCOCCCN1C(=O)c2ccc(-c3ccccc3)n2CC1(C)C(=O)NC1CCCCCCC1` (stereo not given), the activity change, negative = inhibition in assay [1] was -2.12%; in assay [2], 0.882%; in assay [3] it was 2.45%; in assay [4], -7.45%; in assay [5] it was -2.79%.

`O=c1[nH]c(C2CCCN(Cc3cccc(Cl)c3)C2)nc2ccc(F)cc12` (stereo not given): the activity change, negative = inhibition in assay [1] is -9.1%; in assay [2], -3.11%; in assay [3] it was -21.9%; in assay [4], -19.4%; in assay [5], -20.5%.

Consider `CCCn1c(=O)c2cc(Cl)ccc2n2c(=O)n(Cc3ccc(Cl)cc3)nc12`, for which the activity change, negative = inhibition in assay [1] is -1.01%; in assay [2], 4.32%; in assay [3], 4.54%; in assay [4], 1.98%; in assay [5] it was 0.941%.

Take `O=C(NC1CCCC1)c1ccc2c(=O)n(Cc3ccccc3)c3nn(Cc4ccccc4F)c(=O)n3c2c1`: the activity change, negative = inhibition in assay [1] was -0.158%; in assay [2] it was 2.69%; in assay [3] it was -0.916%; in assay [4], -0.04%; in assay [5] it was -1.72%.

For `CC(CNC(=O)CCc1nnc2n(Cc3ccc(F)cc3)c(=O)c3ccccc3n12)c1ccccc1` (stereo not given), the activity change, negative = inhibition in assay [1] is -17.9%; in assay [2], -2.71%; in assay [3], -15.2%; in assay [4] it was -34.2%; in assay [5], -7.82%.

Take `C#CCN(Cc1ccco1)Cc1cnc(S(C)(=O)=O)n1CCCc1ccccc1`: the activity change, negative = inhibition in assay [1] was -3.68%; in assay [2] it was 0.742%; in assay [3], 0.436%; in assay [4], -12.3%; in assay [5], -4.48%.

In the case of `CC1(C)CN(C(=O)c2ccc(-c3cccc4nc(NC(=O)C5CC5)nn34)cc2)C1`, the activity change, negative = inhibition was -15.3% in assay [1]; -14.1% in assay [2]; 11.5% in assay [3]; -21.3% in assay [4]; -5.6% in assay [5].

Turning to `COCC(=O)N1CC(C(=O)NCCc2ccc(OC)cc2)CC(c2ccc(F)c(C)c2)C1` (stereo not given), the activity change, negative = inhibition in assay [1] is 0.007%; in assay [2], 1.9%; in assay [3], 2.13%; in assay [4], -3.48%; in assay [5], 1.43%.

For the compound `CN1CCN(Cc2ncc[nH]2)CC12CCC(=O)N(CC(=O)O)CC2` (stereo not given), the activity change, negative = inhibition in assay [1] was -6.08%; in assay [2], -8.26%; in assay [3] it was -3.52%; in assay [4], -11.8%; in assay [5] it was -11.2%.

Regarding `COc1cccc(-c2ccc(CN3CCCC(NC(=O)c4ccc(Cl)cc4)C3)cc2)c1` (stereo not given), the activity change, negative = inhibition in assay [1] was -5.09%; in assay [2], -8.82%; in assay [3], -8.68%; in assay [4] it was -11.4%; in assay [5] it was -16.8%.

Regarding `Cc1ccc(CNC(=O)Cn2ccc3cc(S(=O)(=O)N4CCC(C)CC4)ccc32)cc1`, the activity change, negative = inhibition in assay [1] is -0.043%; in assay [2], 0%; in assay [3], 0.614%; in assay [4], 0.523%; in assay [5], 0.513%.

Turning to `CCCC1c2cccn2CCN1C(=O)Nc1ccc(C)c(Cl)c1` (stereo not given), the activity change, negative = inhibition in assay [1] was -0.67%; in assay [2], 0.943%; in assay [3], -21.1%; in assay [4] it was -0.644%; in assay [5], 2.65%.

Turning to `O=C(c1ccncc1)N1CC2CCC(C1)N2Cc1ccc(-c2cccs2)cc1`, the activity change, negative = inhibition is -3.3% in assay [1]; -7.23% in assay [2]; -0.607% in assay [3]; -6.94% in assay [4]; -2.59% in assay [5].

`COc1ccc(CNc2cc3c(cn2)CN(Cc2ccccc2)CCN3)cc1OC`: the activity change, negative = inhibition is -40.6% in assay [1]; -7.9% in assay [2]; -94.4% in assay [3]; -61.1% in assay [4]; -19.6% in assay [5].

`C=C(C)C(=O)OC1[C@@H]2C(=C)C(=O)O[C@@H]2C[C@@H](C)[C@@H]2C=CC(=O)[C@@]12C` (stereo not given in full): the activity change, negative = inhibition in assay [1] is 3.8%; in assay [2], 2.67%; in assay [3], 9.81%; in assay [4] it was -5.8%; in assay [5], 5.07%.

As to `Cc1ccc(CS(=O)(=O)NC2CCc3n[nH]c(=O)n3CC2)cc1C` (stereo not given), the activity change, negative = inhibition in assay [1] was -0.812%; in assay [2], 0.214%; in assay [3], 0.858%; in assay [4], -4.16%; in assay [5], -9.4%.

As for `CC(C)OCCCn1c(=O)c2ccccc2n2c(=O)n(CC(=O)c3ccc(F)cc3)nc12`, the activity change, negative = inhibition is 0.013% in assay [1]; 0% in assay [2]; 8.03% in assay [3]; -5.45% in assay [4]; 1.1% in assay [5].

Take `COc1ccc(CNC(=O)C2(C)Cn3cnc(C(=O)Nc4ccc(C(C)C)cc4)c3C(=O)N2C2CC2)cc1` (stereo not given): the activity change, negative = inhibition in assay [1] was -2.13%; in assay [2], 0.709%; in assay [3], 3.17%; in assay [4], -5.07%; in assay [5] it was 1.69%.

For the compound `CCCn1c(=O)c2ccc(C(=O)NCC(C)C)cc2n2c(=O)n(CC(N)=O)nc12`, the activity change, negative = inhibition was 0.951% in assay [1]; 0.788% in assay [2]; 3.32% in assay [3]; 3.24% in assay [4]; 4.01% in assay [5].

Turning to `COc1ccc(CCc2nc(-c3nnn4c3COC(c3ccc(Cl)cc3)C4)no2)cc1` (stereo not given), the activity change, negative = inhibition is -2.07% in assay [1]; -2.31% in assay [2]; -0.37% in assay [3]; 2.56% in assay [4]; 4.93% in assay [5].

Turning to `COc1ccccc1N1CCN(C(=O)Cn2c(=O)oc3cc(S(=O)(=O)N4CCCC4)ccc32)CC1`, the activity change, negative = inhibition in assay [1] was 6.37%; in assay [2], 0%; in assay [3], -0.014%; in assay [4], -0.51%; in assay [5] it was 1.15%.

For `C[C@]1(O)CC[C@@H]2C(C(=O)O)=CO[C@@H](O[C@@H]3O[C@H](CO)[C@@H](O)[C@H](O)[C@H]3O)[C@@H]21`, the activity change, negative = inhibition is 0% in assay [1]; 7.04% in assay [2]; 8.07% in assay [3]; -5.25% in assay [4]; 4.55% in assay [5].

In the case of `CC1(C(=O)NC2CCCCC2)Cn2c(nc3ccccc32)C(=O)N1Cc1ccccc1Br` (stereo not given), the activity change, negative = inhibition was 4.05% in assay [1]; 3.82% in assay [2]; 4.35% in assay [3]; -0.232% in assay [4]; -2.34% in assay [5].
